# PubChem BioAssay AID504332 (National Center for Advancing Translational Sciences (NCATS), 2011)
# Out of some 350,000 compounds screened, about 31,000 (8.9%) were called active. The inconclusive results got no clear call from the source; some entries with a clear call stand among them for comparison. The call rests on the fitted dose curve; in most records, active means well fitted inhibition curve with a large enough effect; inconclusive means small, poorly fitted or top-dose-only effect; inactive means no such curve, though single readings can be large or run the other way. A potency beside an inconclusive call is a rough fit, not a confirmed value.
# Molecular target: Histone-lysine N-methyltransferase EHMT2 (Homo sapiens) (UniProt Q96KQ7)
# Chain of UniProt Q96KQ7 (Q96KQ7 whole entry, looked up): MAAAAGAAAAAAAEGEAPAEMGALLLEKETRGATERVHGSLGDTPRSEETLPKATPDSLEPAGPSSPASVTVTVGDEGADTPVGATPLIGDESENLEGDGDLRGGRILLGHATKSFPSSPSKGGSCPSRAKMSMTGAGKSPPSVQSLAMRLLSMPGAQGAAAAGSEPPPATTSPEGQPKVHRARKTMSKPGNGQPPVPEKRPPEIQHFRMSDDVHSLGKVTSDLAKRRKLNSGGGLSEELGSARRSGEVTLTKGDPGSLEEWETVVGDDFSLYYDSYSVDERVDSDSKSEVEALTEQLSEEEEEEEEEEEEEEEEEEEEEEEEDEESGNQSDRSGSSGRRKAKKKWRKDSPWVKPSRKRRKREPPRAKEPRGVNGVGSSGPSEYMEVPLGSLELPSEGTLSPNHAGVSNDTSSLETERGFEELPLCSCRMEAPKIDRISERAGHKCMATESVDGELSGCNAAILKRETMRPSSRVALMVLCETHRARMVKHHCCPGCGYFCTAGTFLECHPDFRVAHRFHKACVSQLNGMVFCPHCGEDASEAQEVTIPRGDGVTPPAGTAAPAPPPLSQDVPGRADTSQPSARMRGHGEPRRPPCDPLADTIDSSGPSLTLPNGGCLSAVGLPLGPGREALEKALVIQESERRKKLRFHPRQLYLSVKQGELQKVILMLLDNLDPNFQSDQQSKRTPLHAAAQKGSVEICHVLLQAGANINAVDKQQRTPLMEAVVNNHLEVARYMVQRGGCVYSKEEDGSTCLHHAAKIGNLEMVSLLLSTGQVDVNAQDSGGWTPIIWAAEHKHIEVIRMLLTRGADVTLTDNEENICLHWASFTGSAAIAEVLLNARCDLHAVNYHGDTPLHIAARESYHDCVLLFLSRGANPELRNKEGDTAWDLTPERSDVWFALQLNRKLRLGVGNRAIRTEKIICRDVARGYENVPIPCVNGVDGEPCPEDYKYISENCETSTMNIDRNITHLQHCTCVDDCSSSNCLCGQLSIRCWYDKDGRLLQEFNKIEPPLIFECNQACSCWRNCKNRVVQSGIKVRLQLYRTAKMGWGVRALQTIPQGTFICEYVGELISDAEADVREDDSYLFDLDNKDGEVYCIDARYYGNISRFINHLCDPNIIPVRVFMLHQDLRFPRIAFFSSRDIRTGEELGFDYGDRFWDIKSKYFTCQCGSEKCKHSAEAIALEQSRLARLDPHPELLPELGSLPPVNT
# Experiment: qHTS Assay for Inhibitors of Histone Lysine Methyltransferase G9a; further: nearly all actives have a fitted effect of over 75% in size
# Details: G9a H3K9 monomethylation, AlphaScreen, 2 h; activity, negative = inhibition: at 59 µM (top of the series) unless noted
# Method in brief: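 Step 1: enzyme (final 20 nM) with compound, 15 min RT. Step 2: substrate peptide 500 nM and SAM 20 uM, 2 h RT. Step 3: anti-H3K9me1 antibody and AlphaScreen beads, 10 min, then plate read.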
# On the % scale 0 is the no-effect control and ±100 the full control effect; potency means the concentration at half of the fitted maximal effect; tags describe the fitted curve by direction and shape.
Compound,"activity, negative = inhibition",Potency
C/C(CC(=O)NCc1ccco1)=N\NC(=O)c1ccc(Cl)cc1Cl,inactive: -7.93% [at 102 µM],
O=C(O)c1cccc(Cn2c(Cl)c(/C=N/Nc3ccccc3)sc2=O)c1,,active: 12.6 µM
CCCCNC(=O)CCCN1C(=O)c2cccnc2Sc2ccccc21,,"inconclusive: 0.562 µM [inhibitor, partial curve, poor fit]"
COc1ccc(N2C(=O)C(=O)/C(=C(/O)c3ccc(C)cc3)C2c2cccnc2)cc1 (centres undefined),,"inconclusive: 10 µM [inhibitor, partial curve, poor fit]"
O=C(O)C1C2C=CC3(CN(C/C=C/c4ccccc4)C(=O)C13)O2 (centres undefined),,"inconclusive: 56.2 µM [inhibitor, partial curve]"
CCOc1ccccc1NC(=O)c1c(C)cc(C)nc1SCC(=O)c1cccc(OC)c1,inactive: -0.877%,
CCCCCCCCn1c2c(c(=N)c3c1CCC3)CCCC2,,"inconclusive: 89.1 µM [inhibitor, single point]"
CC(C)=O,inactive: -14.5%,
Cc1cc(O)c(C(c2ccc(F)cc2)N2CCCCC2)c(=O)n1Cc1ccco1 (centres undefined),,"inconclusive: 39.8 µM [inhibitor, single point]"
Cc1ccc(CN2C(=O)c3ccccc3C2C(=O)NC2CCCCCC2)cc1 (centres undefined),inactive: -0.419%,
CCOC(=O)C1=C(C)Nc2ncnn2C1c1cc(Br)ccc1F (centres undefined),,"inconclusive: 8.91 µM [inhibitor, partial curve, poor fit]"
COc1cc2cc(C(=O)N3CCOCC3)cc(-c3ccc(C)cc3)c2cc1OC,,"inconclusive: 70.8 µM [inhibitor, single point]"
COc1ccc(NC(=O)c2ccco2)cc1N,,"inconclusive: 1.78 µM [inhibitor, full curve, poor fit]"
CCOC(=O)c1sc2ncnc(N3CCN(C)CC3)c2c1C,,"inconclusive: 0.794 µM [inhibitor, full curve, poor fit]"
O=C(O)c1cccc2[nH]c(C(F)(F)F)nc12,,active: 39.8 µM
COc1ccc2oc(CS(=O)c3ccccc3)c(C(=O)O)c2c1 (centres undefined),inactive: 25.3% [at 102 µM],
O=[N+]([O-])c1ccccc1N/N=C/c1ccccc1,inactive: -21.4% [at 102 µM],
Nc1ccccc1SCc1cn2cccnc2n1,,active: 35.5 µM
COc1ccc(C[C@](C)(N)C(=O)O)cc1OC,,"inconclusive: 1 µM [inhibitor, full curve, poor fit]"
CCCNC(=O)c1ccccc1NC(=O)c1ccccc1N(C)S(C)(=O)=O,,"inconclusive: 14.1 µM [inhibitor, single point]"
COc1ccc(C)cc1-n1c(C)cc(C=O)c1C,inactive: -33.7% [at 102 µM],
O=C(CCN1CCN(c2ccccc2)CC1)NNC(=S)Nc1ccccc1,,"inconclusive: 17.8 µM [inhibitor, full curve, poor fit]"
CC(C)(C)C1CCC2(CC1)Nc1cccc3cccc(c13)N2,,"inconclusive: 1.58 µM [inhibitor, partial curve, poor fit]"

Compound,"activity, negative = inhibition",Potency
Clc1ccc2c(c1)C1OCCC1C(c1ccco1)N2 (centres undefined),,"inconclusive: 1.26 µM [inhibitor, single point]"
Cn1c(=O)c2ncn(CC(=O)N/N=C/C=C/c3ccccc3)c2n(C)c1=O,,"inconclusive: 44.7 µM [inhibitor, partial curve, poor fit]"
Cc1cccc(C)c1Nc1c(-c2ccsc2)nc2ccccn12,,active: 14.1 µM
CC(Sc1ccccn1)C(=O)Nc1ccc2c(c1)OCO2 (centres undefined),,"inconclusive: 31.6 µM [inhibitor, single point]"
COc1ccc(CN(CCC(c2ccc3c(c2)OCO3)c2ccccc2OC)C(C)=O)cc1 (centres undefined),,"inconclusive: 25.1 µM [inhibitor, partial curve, poor fit]"
CCOc1ccc(C(=O)N2CCN(c3cccc(Cl)c3)CC2)cc1,,"inconclusive: 44.7 µM [inhibitor, partial curve, poor fit]"
COc1ccc(O)c(C(=O)c2cnn(-c3ccc(Cl)cc3)c2)c1,,"inconclusive: 79.4 µM [inhibitor, single point]"
COc1cc(/C=N/NC(=O)c2cccc3ccccc23)cc(OC)c1O,,"inconclusive: 70.8 µM [inhibitor, single point]"
CCCC(=O)OCCNc1cc(SCCC(=O)OC)c2nonc2c1[N+](=O)[O-],,"inconclusive: 5.01 µM [inhibitor, full curve, poor fit]"
Cc1ccc(-c2nnc(-c3ccccc3)c(-c3ccccc3)n2)cc1,,"inconclusive: 25.1 µM [inhibitor, partial curve, poor fit]"
COc1oc(-c2ccccc2C)nc1C(F)(F)F,,"inconclusive: 79.4 µM [inhibitor, partial curve, poor fit]"
O=C(COC(=O)CCOc1ccccc1)NCCc1ccccc1,,"inconclusive: 89.1 µM [inhibitor, partial curve, poor fit]"
O=C(NC(=S)Nc1ccc(N2CCOCC2)cc1)c1ccc(Cl)cc1,,"inconclusive: 28.2 µM [inhibitor, single point]"
CCOC(=O)c1ccc(OCC2c3cc(OC)c(OC)cc3CCN2C(=O)Cc2ccc(F)cc2)cc1 (centres undefined),inactive: -4.54%,
COc1cc(NS(=O)(=O)c2ccc(N=Cc3c(C)[nH]n(-c4ccccc4)c3=O)cc2)nc(OC)n1,,"inconclusive: 56.2 µM [inhibitor, partial curve]"
C=CCn1c(COc2ccccc2)nnc1SCC(=O)Nc1ccc(S(N)(=O)=O)cc1,,"inconclusive: 70.8 µM [inhibitor, partial curve, poor fit]"
CCOc1ccc(C(=O)Nc2ccc(N3CCN(C(C)=O)CC3)cc2)cc1[N+](=O)[O-],,"inconclusive: 25.1 µM [inhibitor, single point]"
OCC[C@@H]1C[C@H](O)[C@@H](O)[C@@]2(CCc3ccccc3CO2)O1,,active: 44.7 µM
Cc1ccc(NC(=O)c2c(Nc3ccccc3C)sc(C(=O)c3ccccc3)c2N)cc1,,"inconclusive: 8.91 µM [inhibitor, partial curve]"
CN1CCN(CCCNC(=O)Cn2c(-c3cccs3)cc3ccccc32)CC1,inactive: -12.3%,
O=C1NC(=O)C2C1C(c1ccc([N+](=O)[O-])cc1)=NN2Cc1ccccc1 (centres undefined),,active: 50.1 µM
COc1ccccc1/C=N/Nc1nccnc1Cl,,"inconclusive: 89.1 µM [inhibitor, single point]"
O=C(C[n+]1cc(-c2ccccc2)n2c1CCC2)Nc1nc(-c2ccc(F)cc2)cs1,,"inconclusive: 79.4 µM [inhibitor, single point]"

Compound,"activity, negative = inhibition",Potency
CCCCCCC(=O)Oc1ccc(N2C(=O)CCC2=O)cc1,,"inconclusive: 79.4 µM [inhibitor, partial curve, poor fit]"
COC(=O)C1C(=O)C(C(=O)/C=C/c2ccccc2)C(=O)CC1(C)C (centres undefined),,"inconclusive: 56.2 µM [inhibitor, partial curve, poor fit]"
CC1CCCN(C(=O)CN2CCC(c3nc4ccc(Cl)cc4[nH]3)CC2)C1 (centres undefined),inconclusive: -74% [inhibitor],
Cc1ccc(CNC(=O)CS(=O)Cc2nc(-c3ccccc3F)oc2C)cc1 (centres undefined),,"inconclusive: 89.1 µM [inhibitor, single point]"
O=C(OCC(=O)N1CCCC1)c1ccc(Cl)c([N+](=O)[O-])c1,inactive: 17.8% [at 102 µM],
Cc1ccc2c(c1)C1CN(C)CCC1N2C(=O)c1cccc(S(=O)(=O)N2CC(C)CC(C)C2)c1 (centres undefined),,"inconclusive: 50.1 µM [inhibitor, partial curve, poor fit]"
Fc1ccccc1NC(=S)Nc1cccnc1,inactive: 37.3% [at 12.7 µM],
COc1ccc(NC(=O)c2cnn(-c3ccc(C)cc3)c2-n2cccc2)cc1Cl,inactive: -24.4%,
O=C(CCN1C(=O)c2ccccc2C1=O)NC1=NCCS1,,"inconclusive: 89.1 µM [inhibitor, partial curve, poor fit]"
COc1cc(Cl)c(C)cc1NC(=O)COC(=O)c1cc[n+]([O-])cc1,inactive: 15.5% [at 102 µM],
COC(=O)c1sccc1NC(=O)CNC(=O)c1ccccc1,inactive: -4.1% [at 102 µM],
Cc1cc(C)nc(SCC(=O)N(C)CC(=O)Nc2c(Cl)cccc2Cl)n1,inactive: 3.52% [at 102 µM],
Cc1ccc2c(c1)nnn2C1CCN(S(=O)(=O)c2ccc(C(=O)N(C)C3CCCCC3)cc2)CC1,,active: 56.2 µM
O=C(c1ccco1)N1CCN(c2nc3ccccc3n3nnnc23)CC1,inactive: 0.333%,
COc1ccc(N2CCN(CCCNC(=O)C3COc4ccc(OC)cc4C3)CC2)cc1 (centres undefined),,"inconclusive: 31.6 µM [inhibitor, single point]"
COCCCNCCOc1ccc(C)cc1[N+](=O)[O-],,active: 14.1 µM
O=C(CCc1ccccc1)NC(NC(=S)Nc1ccc(Cl)cc1)C(Cl)(Cl)Cl (centres undefined),,"inconclusive: 28.2 µM [inhibitor, single point]"
N/C(Cc1ccc([N+](=O)[O-])cc1)=N\OC(=O)CC1CCCCC1,,"inconclusive: 25.1 µM [inhibitor, single point]"
Cc1cccc2nc(-c3cccnc3)c(Nc3ccc(C(C)C)cc3)n12,,"inconclusive: 3.16 µM [inhibitor, partial curve, poor fit]"
CCOC(=O)c1[nH]c(COC(=O)c2ccccc2NC(=O)c2ccco2)c(C(=O)OCC)c1C,inactive: -0.771% [at 12.7 µM],
O=C(NC1CC(=O)N(c2ccccc2)C1)C1CCCCC1 (centres undefined),inactive: -5.49%,
Cc1ccc(S(=O)(=O)Nc2nc(C)c(NC(=O)Nc3ccc(Cl)cc3Cl)s2)cc1,,"inconclusive: 89.1 µM [inhibitor, single point]"
Cc1cc(C)cc(NC(=O)CSc2nccn2-c2ccccc2)c1,,"inconclusive: 31.6 µM [inhibitor, single point]"
